Not every detail of the peptide structures is certain; ends, links or a residue may be inferred. Residues, ends and D or L forms follow the SMILES beside them. No end group written: not given here.
molecular target: T1, extracellular domain of the human erythropoietin receptor (EPO binding protein, EBP) (Homo sapiens, UniProt P19235); assay: Immobilized EBP based [125I]EPO competition binding assay; conditions: IC50 relative to RWJ61233 (IC50 5 μM); cyclic peptides, COOH terminal amides
T1 construct: made in house
T1 sequence (P19235 25-250 limits assumed): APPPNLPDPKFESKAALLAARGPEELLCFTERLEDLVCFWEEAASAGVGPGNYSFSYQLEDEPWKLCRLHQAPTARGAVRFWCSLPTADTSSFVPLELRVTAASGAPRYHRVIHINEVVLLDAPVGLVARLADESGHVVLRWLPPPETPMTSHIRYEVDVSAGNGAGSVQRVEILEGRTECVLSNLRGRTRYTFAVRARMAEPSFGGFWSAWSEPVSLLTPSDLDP
Method: The iodoacetyl activation chemistry of Sufolink beads (Pierce Chemical Co, Rockford, Ill.) is specific for free thiols and assures that the linkage is not easily reversible. EBP-Sulfolink beads were made as follows: SulfoLink gel suspension (10 ml) was mixed with coupling buffer (40 ml: 50 mM Tris, pH 8.3, 5 mM EDTA) and the gel was allowed to settle. The supernatant was removed and the EBP (0.3-1 mg/ml in coupling buffer) to be bound was added directly to the washed beads. The mixture was rocked gently for 30 minutes at room temperature, and the beads were allowed to settle for 1 hour at room temperature. The supernatant was removed and retained, and the beads were washed twice with 20 ml of coupling buffer. The washes were recovered as well. The beads were then treated with 20 ml of 0.05M cysteine for 30 minutes at room temperature to block unbound sites. Finally, the beads were washed with 50 ml of 1M NaCl, then with 30 ml of PBS, and resuspended in 20 ml of PBS and stored at 4° C. for later use. The amount of EBP which was covalently bound to the beads was determined by comparing the OD280 of the original EBP solution to the total OD280 recovered in the reaction supernatant and the two 20 ml washes.
Binding assays were initiated by the addition of EBP beads (50 μl) to individual reaction tubes. […] Each reaction volume was brought to 500 μl with binding buffer (PBS/0.2% BSA). The tubes were incubated for five hours (a time period experimentally determined as adequate for the establishment of equilibrium) at room temperature with gentle rocking. After five hours, each reaction mixture was passed through a 1 ml pipet tip plugged with glass wool.
Competitive binding analysis assays of candidate peptides were performed as outlined below. Individual peptides were dissolved in DMSO to prepare a stock solution of 1 mM. […] Initial assay points with no added peptide were included in each assay to determine total binding. Binding mixtures were incubated overnight at room temperature with gentle rocking. The beads were then collected using Micro-columns (Isolab, Inc., Akron, Ohio) and washed with 3 mL of wash buffer. The columns containing the washed beads were placed in 12×75 mm glass tubes and bound radioactivity levels were determined using a gamma counter.

Molecule	Relative Binding
CC[C@H](C)[C@H](NC(=O)[C@H](Cc1ccc(O)cc1)NC(=O)[C@H](CCC(N)=O)NC(=O)[C@H](C)NC(=O)[C@@H](NC(=O)[C@@H](N)[C@@H](C)O)[C@@H](C)CC)C(=O)N[C@H]1CSSC[C@@H](C(=O)N[C@@H](CCCNC(=N)N)C(=O)N2CCC[C@H]2C(=O)N[C@@H](CO)C(=O)N2CCC[C@H]2C(=O)N[C@@H](CCCCN)C(=O)N[C@@H](C)C(N)=O)NC(=O)[C@H](CCC(=O)O)NC(=O)[C@H](Cc2c[nH]c3ccccc23)NC(=O)[C@H]([C@@H](C)O)NC(=O)[C@H](CCC(=O)O)NC(=O)[C@@H]2CCCN2C(=O)CNC(=O)[C@H](CCSC)NC(=O)[C@H](Cc2ccc(O)cc2)NC1=O [AF11654] (HELM PEPTIDE1{T.I.A.Q.Y.I.C.Y.M.G.P.E.T.W.E.C.R.P.S.P.K.A.[am]}$PEPTIDE1,PEPTIDE1,7:R3-16:R3$$$V2.0)	1
CC(C)C[C@@H]1NC(=O)[C@@H]2CCCN2C(=O)[C@H](C)NC(=O)[C@H](Cc2ccccc2)NC(=O)[C@H](Cc2c[nH]cn2)NC(=O)[C@@H](NC(=O)[C@H](CO)NC(=O)[C@H](Cc2ccc(O)cc2)NC(=O)[C@@H](NC(=O)CNC(=O)CN)[C@@H](C)O)CSSC[C@@H](C(=O)N[C@@H](CCCCN)C(=O)N2CCC[C@H]2C(=O)N[C@@H](CCC(N)=O)C(=O)NCC(=O)NCC(N)=O)NC(=O)[C@H](C(C)C)NC(=O)[C@H](Cc2c[nH]c3ccccc23)NC(=O)[C@H]([C@@H](C)O)NC1=O [RWJ 61313] (HELM PEPTIDE1{G.G.T.Y.S.C.H.F.A.P.L.T.W.V.C.K.P.Q.G.G.[am]}$PEPTIDE1,PEPTIDE1,6:R3-15:R3$$$V2.0)	16
CC(C)C[C@@H]1NC(=O)[C@@H]2CCCN2C(=O)CNC(=O)[C@H](Cc2ccccc2)NC(=O)[C@H](Cc2c[nH]cn2)NC(=O)[C@@H](NC(=O)[C@H](CO)NC(=O)[C@H](Cc2ccc(O)cc2)NC(=O)[C@@H](NC(=O)CNC(=O)CN)[C@@H](C)O)CSSC[C@@H](C(=O)N[C@@H](CCCCN)C(=O)N2CCC[C@H]2C(=O)N[C@@H](CCC(N)=O)C(=O)NCC(=O)NCC(N)=O)NC(=O)[C@H](C(C)C)NC(=O)[C@H](C)NC(=O)[C@H]([C@@H](C)O)NC1=O [RWJ 61395] (HELM PEPTIDE1{G.G.T.Y.S.C.H.F.G.P.L.T.A.V.C.K.P.Q.G.G.[am]}$PEPTIDE1,PEPTIDE1,6:R3-15:R3$$$V2.0)	> 100
HFGPLTWV-NH2 [RWJ 61394]	> 100
CC(C)C[C@@H]1NC(=O)[C@@H]2CCCN2C(=O)CNC(=O)[C@H](Cc2ccccc2)NC(=O)[C@H](Cc2c[nH]cn2)NC(=O)[C@@H](NC(=O)[C@@H](N)Cc2ccc(O)cc2)CSSC[C@@H](C(N)=O)NC(=O)[C@H](C(C)C)NC(=O)[C@H](Cc2c[nH]c3ccccc23)NC(=O)[C@H]([C@@H](C)O)NC1=O [RWJ 61513] (HELM PEPTIDE1{Y.C.H.F.G.P.L.T.W.V.C.[am]}$PEPTIDE1,PEPTIDE1,2:R3-11:R3$$$V2.0)	12
CC(C)C[C@@H]1NC(=O)[C@@H]2CCCN2C(=O)CNC(=O)[C@H](Cc2ccccc2)NC(=O)[C@H](Cc2c[nH]cn2)NC(=O)[C@@H](NC(=O)[C@H](CO)NC(=O)[C@H](C)NC(=O)[C@@H](NC(=O)CNC(=O)CN)[C@@H](C)O)CSSC[C@@H](C(=O)N[C@@H](CCCCN)C(=O)N2CCC[C@H]2C(=O)N[C@@H](CCC(N)=O)C(=O)NCC(=O)NCC(N)=O)NC(=O)[C@H](C(C)C)NC(=O)[C@H](Cc2c[nH]c3ccccc23)NC(=O)[C@H]([C@@H](C)O)NC1=O [RWJ 61231] (HELM PEPTIDE1{G.G.T.A.S.C.H.F.G.P.L.T.W.V.C.K.P.Q.G.G.[am]}$PEPTIDE1,PEPTIDE1,6:R3-15:R3$$$V2.0)	24
CC(C)C[C@@H]1NC(=O)[C@@H]2CCCN2C(=O)CNC(=O)[C@H](Cc2ccccc2)NC(=O)[C@H](Cc2c[nH]cn2)NC(=O)[C@@H](NC(=O)[C@H](CO)NC(=O)[C@H](Cc2ccc(O)cc2)NC(=O)[C@@H](NC(=O)CNC(=O)CN)[C@@H](C)O)CSSC[C@@H](C(=O)N[C@@H](CCCCN)C(=O)N2CCC[C@H]2C(=O)N[C@@H](CCC(N)=O)C(=O)NCC(=O)NCC(N)=O)NC(=O)[C@H](C(C)C)NC(=O)[C@H](Cc2c[nH]c3ccccc23)NC(=O)[C@H](C)NC1=O [RWJ 61278] (HELM PEPTIDE1{G.G.T.Y.S.C.H.F.G.P.L.A.W.V.C.K.P.Q.G.G.[am]}$PEPTIDE1,PEPTIDE1,6:R3-15:R3$$$V2.0)	18
CC(C)C[C@@H]1NC(=O)[C@@H]2CCCN2C(=O)CNC(=O)[C@H](Cc2ccccc2)NC(=O)[C@H](Cc2c[nH]cn2)NC(=O)[C@@H](NC(=O)[C@H](CO)NC(=O)[C@@H](N)Cc2ccc(O)cc2)CSSC[C@@H](C(N)=O)NC(=O)[C@H](C(C)C)NC(=O)[C@H](Cc2c[nH]c3ccccc23)NC(=O)[C@H]([C@@H](C)O)NC1=O [RWJ 61477] (HELM PEPTIDE1{Y.S.C.H.F.G.P.L.T.W.V.C.[am]}$PEPTIDE1,PEPTIDE1,3:R3-12:R3$$$V2.0)	50
CC(C)C[C@@H]1NC(=O)[C@@H]2CCCN2C(=O)CNC(=O)[C@H](Cc2ccccc2)NC(=O)[C@H](Cc2c[nH]cn2)NC(=O)[C@@H](NC(=O)[C@H](CO)NC(=O)[C@@H](N)Cc2ccc(O)cc2)CSSC[C@@H](C(=O)N[C@@H](CCCCN)C(=O)N2CCC[C@H]2C(N)=O)NC(=O)[C@H](C(C)C)NC(=O)[C@H](Cc2c[nH]c3ccccc23)NC(=O)[C@H]([C@@H](C)O)NC1=O [RWJ 61232] (HELM PEPTIDE1{Y.S.C.H.F.G.P.L.T.W.V.C.K.P.[am]}$PEPTIDE1,PEPTIDE1,3:R3-12:R3$$$V2.0)	9
CC(C)C[C@@H]1NC(=O)[C@@H]2CCCN2C(=O)CNC(=O)[C@H](Cc2ccccc2)NC(=O)[C@H](Cc2c[nH]cn2)NC(=O)[C@@H](NC(=O)[C@H](CO)NC(=O)[C@H](Cc2ccc(O)cc2)NC(=O)[C@@H](N)[C@@H](C)O)CSSC[C@@H](C(=O)N[C@@H](CCCCN)C(=O)N2CCC[C@H]2C(=O)N[C@@H](CCC(N)=O)C(N)=O)NC(=O)[C@H](C(C)C)NC(=O)[C@H](Cc2c[nH]c3ccccc23)NC(=O)[C@H]([C@@H](C)O)NC1=O [RWJ 61230] (HELM PEPTIDE1{T.Y.S.C.H.F.G.P.L.T.W.V.C.K.P.Q.[am]}$PEPTIDE1,PEPTIDE1,4:R3-13:R3$$$V2.0)	6
CC(C)C[C@@H]1NC(=O)[C@@H]2CCCN2C(=O)CNC(=O)[C@H](Cc2ccccc2)NC(=O)[C@H](Cc2c[nH]cn2)NC(=O)[C@@H](NC(=O)[C@H](CO)NC(=O)[C@H](Cc2ccccc2)NC(=O)[C@@H](NC(=O)CNC(=O)CN)[C@@H](C)O)CSSC[C@@H](C(=O)N[C@@H](CCCCN)C(=O)N2CCC[C@H]2C(=O)N[C@@H](CCC(N)=O)C(=O)NCC(=O)NCC(N)=O)NC(=O)[C@H](C(C)C)NC(=O)[C@H](Cc2c[nH]c3ccccc23)NC(=O)[C@H]([C@@H](C)O)NC1=O [RWJ 61598] (HELM PEPTIDE1{G.G.T.F.S.C.H.F.G.P.L.T.W.V.C.K.P.Q.G.G.[am]}$PEPTIDE1,PEPTIDE1,6:R3-15:R3$$$V2.0)	12

test system: polycythemic exhypoxic mice (59Fe incorporation); assay: Polycythemic exhypoxic mouse bioassay; assay type: in vivo; conditions: approximate equivalency; Table 23
Method: J. Polycythemic Exhypoxic Mouse Bioassay
Female BDF1 mice (18-20 gms) are subjected to a conditioning cycle (in hypobaric chambers) of 18 hrs. at 0.40±0.02 atm. and 6 hrs. at ambient pressure for a period of 14 days.
Mice are maintained at ambient pressure for 72 hrs prior to administration of r-HuEPO or test samples. Test samples or r-HuEPO standard are diluted for injection into conditioned mice. The vehicle consists of: PBS containing 0.1% BSA (w/v). For each dilution, 0.5 ml is administered subcutaneously into each of 10 mice. ^59 Fe is administered 48 hrs. later. Blood samples are taken 48 hrs. following administration of ^59 Fe. Hematocrits and radioactivity measurements are determined for each sample. Dose range and results (two different assays) are set forth in Table 22 and FIGS. 17A-17C, infra.

Molecule	Amount of Peptide Equivalent to 0.025 units of EPO
CC[C@H](C)[C@H](NC(=O)[C@H](Cc1ccc(O)cc1)NC(=O)[C@H](CCC(N)=O)NC(=O)[C@H](C)NC(=O)[C@@H](NC(=O)[C@@H](N)[C@@H](C)O)[C@@H](C)CC)C(=O)N[C@H]1CSSC[C@@H](C(=O)N[C@@H](CCCNC(=N)N)C(=O)N2CCC[C@H]2C(=O)N[C@@H](CO)C(=O)N2CCC[C@H]2C(=O)N[C@@H](CCCCN)C(=O)N[C@@H](C)C(N)=O)NC(=O)[C@H](CCC(=O)O)NC(=O)[C@H](Cc2c[nH]c3ccccc23)NC(=O)[C@H]([C@@H](C)O)NC(=O)[C@H](CCC(=O)O)NC(=O)[C@@H]2CCCN2C(=O)CNC(=O)[C@H](CCSC)NC(=O)[C@H](Cc2ccc(O)cc2)NC1=O [AF11654] (HELM PEPTIDE1{T.I.A.Q.Y.I.C.Y.M.G.P.E.T.W.E.C.R.P.S.P.K.A.[am]}$PEPTIDE1,PEPTIDE1,7:R3-16:R3$$$V2.0)	11 to 21 nmol

From patent US5773569A (Affymax Technologies N.V., priority 1995, dated 1998)
